Laboratory results reported in publication PMC9911399, “Two distinct binding modes provide the RNA-binding protein RbFox with extraordinary sequence specificity”.
Changes are numbered by the printed parent chain; changes in the protein carry UniProt numbers. Some of the results follow.

B1: AUCCCGA (DNA:RNA)
RNA: GGGAGACCGGAAUUCAGAUUGUCCAUCCCGAUUAAAUCCCGUCGUAGCCACCA
DNA 1: CAATCTGAATTCCGGTCTCCC
DNA 2: TGGTGGCTACGACGGGATT
B2: UGCAAAC (DNA:RNA)
RNA: B1 RNA with A25U, U26G, C28A, C29A, G30A, A31C
DNA 1: CAATCTGAATTCCGGTCTCCC
DNA 2: TGGTGGCTACGACGGGATT
B3: UUCAUUG (DNA:RNA)
RNA: B1 RNA with A25U, C28A, C29U, G30U, A31G
DNA 1: CAATCTGAATTCCGGTCTCCC
DNA 2: TGGTGGCTACGACGGGATT
B4: AGACUGA (DNA:RNA)
RNA: B1 RNA with U26G, C27A, C29U
DNA 1: CAATCTGAATTCCGGTCTCCC
DNA 2: TGGTGGCTACGACGGGATT
B5: ACAAGAC (DNA:RNA)
RNA: B1 RNA with U26C, C27A, C28A, C29G, G30A, A31C
DNA 1: CAATCTGAATTCCGGTCTCCC
DNA 2: TGGTGGCTACGACGGGATT
B6: GCCUCGA (DNA:RNA)
RNA: B1 RNA with A25G, U26C, C28U
DNA 1: CAATCTGAATTCCGGTCTCCC
DNA 2: TGGTGGCTACGACGGGATT
B7: GUUACGG (DNA:RNA)
RNA: B1 RNA with A25G, C27U, C28A, A31G
DNA 1: CAATCTGAATTCCGGTCTCCC
DNA 2: TGGTGGCTACGACGGGATT
B8: AGCGAUU (DNA:RNA)
RNA: B1 RNA with U26G, C28G, C29A, G30U, A31U
DNA 1: CAATCTGAATTCCGGTCTCCC
DNA 2: TGGTGGCTACGACGGGATT
B9: UGUUUCU (DNA:RNA)
RNA: GGGAGACCGGAAUUCAGAUUGUCCUGUUUCUUUAAAUCCCGUCGUAGCCACCA
DNA 1: CAATCTGAATTCCGGTCTCCC
DNA 2: TGGTGGCTACGACGGGATT
B10: CAGACAU (DNA:RNA)
RNA: B1 RNA with A25C, U26A, C27G, C28A, G30A, A31U
DNA 1: CAATCTGAATTCCGGTCTCCC
DNA 2: TGGTGGCTACGACGGGATT
B11: UUGUGCG (DNA:RNA)
RNA: B9 RNA with G26U, U27G, U29G, U31G
DNA 1: CAATCTGAATTCCGGTCTCCC
DNA 2: TGGTGGCTACGACGGGATT
B12: CCGCGCC (DNA:RNA)
RNA: B1 RNA with A25C, U26C, C27G, C29G, G30C, A31C
DNA 1: CAATCTGAATTCCGGTCTCCC
DNA 2: TGGTGGCTACGACGGGATT
B13: CCAAACG (DNA:RNA)
RNA: B9 RNA with U25C, G26C, U27A, U28A, U29A, U31G
DNA 1: CAATCTGAATTCCGGTCTCCC
DNA 2: TGGTGGCTACGACGGGATT
B14: AAAUGUC (DNA:RNA)
RNA: B1 RNA with U26A, C27A, C28U, C29G, G30U, A31C
DNA 1: CAATCTGAATTCCGGTCTCCC
DNA 2: TGGTGGCTACGACGGGATT
B15: GUUUGCC (DNA:RNA)
RNA: B9 RNA with U25G, G26U, U29G, U31C
DNA 1: CAATCTGAATTCCGGTCTCCC
DNA 2: TGGTGGCTACGACGGGATT
B16: GUCGCCC (DNA:RNA)
RNA: B1 RNA with A25G, C28G, G30C, A31C
DNA 1: CAATCTGAATTCCGGTCTCCC
DNA 2: TGGTGGCTACGACGGGATT
B17: AGUGAAU (DNA:RNA)
RNA: B9 RNA with U25A, U28G, U29A, C30A
DNA 1: CAATCTGAATTCCGGTCTCCC
DNA 2: TGGTGGCTACGACGGGATT
B18: CGGUAGU (DNA:RNA)
RNA: B9 RNA with U25C, U27G, U29A, C30G
DNA 1: CAATCTGAATTCCGGTCTCCC
DNA 2: TGGTGGCTACGACGGGATT
B19: GAUAACC (DNA:RNA)
RNA: B9 RNA with U25G, G26A, U28A, U29A, U31C
DNA 1: CAATCTGAATTCCGGTCTCCC
DNA 2: TGGTGGCTACGACGGGATT
B20: UGUCCAU (DNA:RNA)
RNA: B9 RNA with U28C, U29C, C30A
DNA 1: CAATCTGAATTCCGGTCTCCC
DNA 2: TGGTGGCTACGACGGGATT

These binders were tested against T1, RBFOX1 RRM (Homo sapiens, UniProt Q9NWB1 109-208) (assay: EMSA; HiTS-Eq, 1 nM pool, 10 min; buffer printed only for the single-RNA assays: 10 mM Tris pH 7.5, 150 mM NaCl, 3.4 mM EDTA, 0.001% NP-40, 30 C). Conditions: tags: His6 N-terminal (pET28a); label: 5' 32P.
T1 sequence: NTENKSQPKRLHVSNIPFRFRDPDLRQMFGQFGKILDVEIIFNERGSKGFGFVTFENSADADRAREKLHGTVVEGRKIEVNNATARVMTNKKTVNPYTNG
Summary of the method: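 Purified wild-type or mutant RbFox RRM at increasing concentrations was equilibrated with 1 nM of 5′-radiolabelled RNA carrying 7 randomized nucleotides for 10 min in 50 µL. Unbound RNA was separated by 8% native PAGE and sequenced. Relative association constants came from read-count changes of each RNA species compared with the control reaction, normalised to the cognate motif.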
B1 was tested, and the binding signal was 0.00452 KA relative to UGCAUGU. For B2, the binding signal was 0.00831 KA relative to UGCAUGU. In the case of B3, the binding signal is reported as 0.0114 KA relative to UGCAUGU. In the case of B4, the binding signal is reported as 0.0138 KA relative to UGCAUGU. B5 was tested, and the binding signal was 0.00266 KA relative to UGCAUGU. B6 was tested, and the binding signal was 0.013 KA relative to UGCAUGU. With B7 the binding signal was 0.00878 KA relative to UGCAUGU. In the case of B8, the binding signal is reported as 0.00915 KA relative to UGCAUGU. With B9 the binding signal was 0.0212 KA relative to UGCAUGU. B10 was tested, and the binding signal was 0.00531 KA relative to UGCAUGU. In the case of B11, the binding signal is reported as 0.0268 KA relative to UGCAUGU. B12 was tested, and the binding signal was 0.00748 KA relative to UGCAUGU. With B13 the binding signal was 0.00359 KA relative to UGCAUGU. For B14, the binding signal was 0.00407 KA relative to UGCAUGU. B15 was tested, and the binding signal was 0.0224 KA relative to UGCAUGU. With B16 the binding signal was 0.00441 KA relative to UGCAUGU. For B17, the binding signal was 0.0106 KA relative to UGCAUGU. For B18, the binding signal was 0.00977 KA relative to UGCAUGU. B19 was tested, and the binding signal was 0.00487 KA relative to UGCAUGU. B20 was tested, and the binding signal was 0.0104 KA relative to UGCAUGU.
